Laboratory results published in PubChem BioAssay AID1347073 (National Center for Advancing Translational Sciences (NCATS), 2019).
Among all 45,000 compounds or so, about 200 (0.44%) were called active. Roughly 7% stayed inconclusive and do not appear here. Calls follow the shape of the dose curve; as a rule, active = well fitted activation curve with a large enough effect; inconclusive = small, poorly fitted or top-dose-only effect; inactive = no such curve, though single readings can be large or run the other way. This is one part of the list.

Experiment: qHTS of TDP-43 Inhibitors: NCGC Sytravon Library Screen; also: 0% is about no effect; nearly all actives have a fitted effect of over 55% in size
Conditions: yeast TDP-43 toxicity rescue, BacTiter-Glo growth, 24 h; series mostly up to 46.1 µM; growth rescue (activation): at the top concentration
Method in brief: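 TDP-43-expressing yeast, pregrown in raffinose, seeded at OD600 0.02 in galactose medium with compound for 24 hr at 30 deg C. Growth read by BacTiter-Glo luminescence, so rescue of toxicity appears as activation.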

| SMILES | growth rescue (activation) |
| --- | --- |
| Cc1ccc(NC(=O)CCC(=O)N/N=C/C=C/c2ccccc2)cc1 | inactive: 7.91% |
| COc1ccccc1C(C)NC(=O)Cc1ccsc1 (stereo not drawn) | inactive: 9.28% |
| COc1ccc(N2C(=O)C(Cl)=C(Nc3ccccc3OC)C2=O)cc1 | inactive: 17.7% |
| COc1ccc(NC(=S)NCC(O)c2ccccc2)c(OC)c1 (stereo not drawn) | inactive: -7.24% |
| O=C1[C@@H]2[C@@H]3C[C@@H]([C@H]4ON=C(c5ccc(OCc6ccccc6)cc5)[C@@H]34)[C@@H]2C(=O)N1c1ccc2c(c1)OCO2 | inactive: 27.1% |
| CCCCc1ccc(S(=O)(=O)NC(=O)C2(C)CCN2C(=O)CC2CC2)cc1 (stereo not drawn) | inactive: 2.43% |
| O=C(Nc1ccccc1C(=O)N1CCCCC1)c1ccccc1C(F)(F)F | inactive: 24.1% |
| COc1ccc(CCNC(=O)C2CCCN(C(=O)c3ccc(Cl)cc3)C2)cc1 (stereo not drawn) | inactive: -16.7% |
| COCc1c(C(=O)Nc2cccc(S(=O)(=O)N3CCCCC3)c2)oc2ccccc12 | inactive: -1.93% |
| COC(=O)c1c(C)[nH]c(C(=O)OCC(=O)c2c(N)n(CC(C)C)c(=O)n(C)c2=O)c1C | inactive: -1.16% |
| Cc1ccc(S(=O)(=O)N(Cc2cc3cccc(C)c3[nH]c2=O)c2ccccc2)cc1 | inactive: -2.28% |
| O=C(NNC(=O)c1ccc2c(c1)OCO2)NC12CC3CC(CC(C3)C1)C2 | inactive: 4.01% |
| CCCn1nc(C(=O)N2CCN(c3ccccn3)CC2)c2ccccc2c1=O | inactive: -6.39% |
| CCOC(=O)C1(CCCc2ccccc2)CCN(C(=O)C2CCCO2)CC1 (stereo not drawn) | inactive: 22.9% |
| CCOCCc1c(O)nc(SCC(=O)N2CCOCC2)[nH]c1=O | inactive: 4.85% |
| CC(=O)N1CCN(c2ccc(NC(=O)/C=C/c3ccccc3)cc2)CC1 | inactive: 0.261% |
| O=C(NCCCNC(=O)c1ccccn1)c1ccc(Cl)cc1 | inactive: -10.1% |
| Cc1cc(C)cc(NC(=O)CSc2nc3[nH]c(=O)cc(O)c3s2)c1 | inactive: 4.49% |
| O=C(CNC(=O)c1ccccc1)N/N=C/c1cccs1 | inactive: 0.716% |
| COc1ccccc1N(CC(=O)N1CCCC1)S(=O)(=O)c1ccc(C)cc1 | inactive: 10% |
| CCOC(=O)C(Cc1ccccc1)C(=O)Nc1ccc(NC(=O)C(Cc2ccccc2)C(=O)OCC)cc1 (stereo not drawn) | inactive: 7.28% |
| Cc1ccc(C(=O)N2CCN(C)CC2)cc1S(=O)(=O)N1CCOCC1 | inactive: -11.5% |
| CCN(CC)CCN1C(=O)C(=O)/C(=C(/O)c2ccc(OC)cc2)C1c1ccco1 (stereo not drawn) | inactive: 14.2% |
| CCOc1ccc(N(CC(=O)Nc2ccc(C)c(C)c2)S(=O)(=O)c2c(C)[nH]c(=O)[nH]c2=O)cc1 | inactive: 6.79% |
| O=C(CNC(=O)c1ccccc1)NCC(O)c1ccc([N+](=O)[O-])cc1 (stereo not drawn) | inactive: 2.18% |
| CC1(C)Oc2ccc(C(=O)N3CCOCC3)cc2N(CC(=O)N2CCOCC2)C1=O | inactive: 28.8% |

| SMILES | growth rescue (activation) |
| --- | --- |
| NC(=O)c1cccc(-c2coc3c(C(=O)NCCc4ccccc4)cccc23)c1 | inactive: 12.5% |
| N/C(=N\OC(=O)N1CCOCC1)c1ccc(Cl)cc1 | inactive: 20% |
| O=C(NCc1cccnc1)NC(C(F)(F)F)C(F)(F)F | inactive: 24.3% |
| COC(=O)c1ccc(NC(=S)NC(=O)c2c(Cl)cnn2C)cc1 | inactive: 11.7% |
| C/C(=C1/SC(=S)N(CCC(=O)O)C1=O)c1ccc(O)cc1 | inactive: -8.18% |
| CCS(=O)(=O)N1CCN(c2ncnc3sc(C)c(C)c23)CC1 | inactive: 22.3% |
| O=C(Nc1ccccc1Cl)c1cc[n+]([O-])cc1 | inactive: -13.4% |
| Cc1ccc(S(=O)(=O)Cn2nnnc2C(CC(C)C)N2CCN(C(=O)c3ccco3)CC2)cc1 (stereo not drawn) | inactive: 8.74% |
| C=CCNC(=O)CSc1nnc(-c2ccccn2)n1Cc1ccccc1 | inactive: -4.9% |
| CC1CCN(C2=C(NS(=O)(=O)c3ccc(Cl)cc3)C(=O)c3ccccc3C2=O)CC1 | inactive: -10.2% |
| CCCOc1cccc(C(=O)NCCNC(=O)c2cnccn2)c1 | inactive: 17.5% |
| Cc1cccc(OCc2n(CC(=O)OC3CC(C)CCC3C(C)C)c3ccccc3[n+]2C)c1 (stereo not drawn) | inactive: 1.55% |
| CCCNC(=O)CCn1nc(-c2ccccc2)c2ccccc2c1=O | inactive: -0.531% |
| Cc1nc2ccccc2nc1N/N=C/c1ccc(O)cc1O | inactive: -2.43% |
| CCOc1ccccc1C1CC(=O)NC(SCC(=O)Nc2nccs2)=C1C#N (stereo not drawn) | inactive: 9.17% |
| COc1ccccc1N1CCN(C(=O)/C=C/c2c(Cl)nc3ccccn23)CC1 | inactive: 28.3% |
| NC(Cc1ccc(C(F)(F)F)cc1)c1csc(Nc2ccc(C(=O)NCCCO)cn2)n1 (stereo not drawn) | inactive: 3.76% |
| CCc1cc2c(=O)c(-c3nc4ccccc4n3C)c(C)oc2c(CN(CC)CC)c1O | inactive: 9.29% |
| CCN(CC)S(=O)(=O)c1ccc(C(=O)OCC(=O)N2CCOCC2)cc1 | inactive: 7.87% |
| COc1cc(C(=O)NC2Cc3ccccc3C2)ccc1OC1CCN(C(C)=O)CC1 | inactive: 5.6% |
| CC(OC(=O)c1nsc(Cl)c1Cl)C(=O)NC1CCCCC1 (stereo not drawn) | inactive: 11.3% |
| CC1(C)C2CC=C(/C=N/NC(=S)Nc3cccnc3)C1C2 (stereo not drawn) | inactive: 6.84% |
| Cc1c(NC(=O)C(C)OC(=O)c2cccc(S(=O)(=O)N(C)C)c2)c(=O)n(-c2ccccc2)n1C (stereo not drawn) | inactive: 14.4% |
| CCCCn1c(=O)[nH]c(=O)c2c1nc(-c1ccc(OC(F)F)c(OC)c1)n2C | inactive: -5.19% |
| Cc1ccc(-c2nc(NC(=O)CSc3ncnc4sc5c(c34)CCC(C)C5)ns2)cc1 (stereo not drawn) | inactive: 2.85% |
| COCc1cccc(-c2csc(C(O)c3ccc(OC)cc3)n2)c1 (stereo not drawn) | inactive: 29.5% |

| SMILES | growth rescue (activation) |
| --- | --- |
| Cc1ccc(C)c(S(=O)(=O)/N=C(/Nc2ccccc2)c2ccccc2)c1 | inactive: 37% |
| CCOC(=O)c1c(C)[nH]c(C(=O)COC(=O)c2ccc([N+](=O)[O-])o2)c1C | inactive: 13.2% |
| Cc1ccc(NC(=O)CN(C)C(=O)c2ccc(S(=O)(=O)N(C)c3ccccc3)cc2)cc1 | inactive: -3% |
| COCCNC(=O)c1cccc(OC2CCN(Cc3ccccc3OCCO)CC2)c1 | inactive: -9.07% |
| COc1ccc(NC(=O)c2cc(C3CCCCN3C(=O)OCC(C)C)on2)c(C)c1 (stereo not drawn) | inactive: 21.8% |
| CC1(c2ccc(OC(F)F)cc2)NC(=O)N(/N=C/c2c(O)ccc3ccccc23)C1=O (stereo not drawn) | inactive: -40% |
| Cc1cc(N)n(-c2nc3ccccc3s2)n1 | inactive: -3.29% |
| CN1CCN(C(=S)NC(=O)c2ccc(Br)cc2)CC1 | inactive: -0.8% |
| CCOC(=O)CSc1nnc(COc2cccc(C)c2)o1 | inactive: 12.1% |
| CC(=O)Nc1ccc(CN(C)c2c(C)nc3ccc(C(=O)NCCCn4ccnc4)cn23)cc1 | inactive: -0.197% |
| CCCCC(C)n1[nH]c(=O)c2c(C)cc(C)nc21 (stereo not drawn) | inactive: -7.22% |
| CC(C)C(O)(C#CCN1CCCCC1)C(C)C | inactive: 0.665% |
| CN1CCN(S(=O)(=O)c2ccc(Oc3ccc(F)cc3Br)nc2)CC1 | inactive: 33.7% |
| COc1ccc(C2c3ccc(O)cc3Oc3ncn(CCN4CCOCC4)c(=N)c32)cc1 (stereo not drawn) | inactive: -45.5% |
| CCCCn1c(=O)[nH]c(=O)c2c1nc(-c1ccc(C)c([N+](=O)[O-])c1)n2CC | inactive: 12.5% |
| Cc1ccc2nc(/C(C#N)=C/c3ccc(O)c(O)c3)[nH]c2c1 | inactive: 2.59% |
| N[C@@H](Cc1ccccc1)C(=O)N1CCC(C(=O)N[C@@H](Cc2c[nH]c3ccccc23)C(=O)O)CC1 | inactive: 7.94% |
| CCc1nc2c(OCc3ccc(F)c(F)c3)cccn2c1N(C)C(=O)c1ccncc1 | inactive: 10.3% |
| CSc1ncc(CN2CCN(CC=C(C)C)C(CCO)C2)cn1 (stereo not drawn) | inactive: -5.79% |
| CCc1nc2ccc(C(=O)NCCc3ccccn3)cn2c1N(CC)CCOC | inactive: -8.01% |
| O=C(CCc1ccc(O)c(O)c1)NNC(=S)Nc1ccc(Br)cc1Cl | inactive: -8.9% |
| Cc1ccccc1-n1c(SCC(=O)NC2CCS(=O)(=O)C2)nc2ccccc2c1=O (stereo not drawn) | inactive: 28.2% |
| Nc1nc(SCC(=O)c2c(N)n(C3CC3)c(=O)[nH]c2=O)n[nH]1 | inactive: 30.5% |
| CC(C)(C)Nc1nc(-c2ccc3c(c2)CCN3C(=O)C2CC2)cs1 | inactive: 19.5% |
| C=CCN(C(=O)Cc1cccs1)c1nc(-c2ccc(S(C)(=O)=O)cc2)cs1 | inactive: 8.13% |
| CCCN(CC1CC1)C(=S)Nc1ccccc1F | inactive: 11% |

| SMILES | growth rescue (activation) |
| --- | --- |
| CCNC(=S)N(CCN(CC)CC)Cc1cc2cc3c(cc2[nH]c1=O)OCCO3 | inactive: 2.37% |
| COc1cccc(C2CC(c3cccs3)=NN2C(=O)CCC(=O)O)c1OC (stereo not drawn) | inactive: 6.25% |
| CSCCC(NC(=O)C1CCC(C)CC1)C(=O)NCCN1CCC(C)CC1 (stereo not drawn) | inactive: -10.8% |
| COCCn1c(SCC(=O)NC2CCCC2)nnc1-c1ccco1 | inactive: -0.415% |
| O=C(CSc1nc(-c2ccc(F)cc2)cc(C(F)(F)F)n1)Nc1ccc2c(c1)OCO2 | inactive: 16.1% |
| O=C(COC(=O)/C=C/c1cccs1)Nc1ccccc1Cl | inactive: 3.67% |
| O=[N+]([O-])c1ccc(/C=N/n2c(CO)nc3ccccc32)s1 | inactive: -12.5% |
| Cc1ccc(C(=O)N[C@H](C(=O)N2CCN(c3ccccc3F)CC2)C(C)C)cc1 | inactive: -7.16% |
| CC1CN(c2nc3ccccc3nc2NS(=O)(=O)c2ccccc2)CC(C)O1 (stereo not drawn) | inactive: 29.1% |
| Cc1ccc(NC(=O)Cn2c(O)c(N=NC(=O)c3ccncc3)c3ccccc32)cc1 | inactive: 9.69% |
| CCN1/C(=C2/OC(=S)N(C)C2=O)Sc2ccccc21 | inactive: -20.8% |
| Cc1ccc(Cl)cc1-c1cc(C(=O)NCC2CCCCC2)[nH]n1 | inactive: 12.8% |
| CCn1c(Cc2ccccc2)nnc1SCC(=O)Nc1ccccc1O | inactive: -14.4% |
| COCCNC(=O)COc1ccccc1Cl | inactive: 9.29% |
| Cc1cccc(CNc2ncc(-c3cccc([N+](=O)[O-])c3)n2C)c1 | inactive: -1.66% |
| CCCS(=O)(=O)c1nc(S(=O)(=O)c2ccc(C)cc2)c(N(CC)CC)s1 | inactive: -14% |
| Cc1ccc(NC(=O)CSc2nnc(CNC(=O)c3ccco3)n2C)c(C)c1 | inactive: -9.29% |
| COc1cc(OC)nc(C(NC(=O)C2CCN(Cc3ccc(N(C)C)cc3)CC2)c2ccc(F)cc2)n1 (stereo not drawn) | inactive: -1.49% |
| CCOc1ncccc1C(=O)OCC(=O)Nc1ccc(C)c(S(=O)(=O)N(C)C)c1 | inactive: 11.6% |
| COc1ccc(C(=O)Nc2cc3c(oc2=O)CCCC3=O)cc1 | inactive: -17.4% |
| O=C(Nc1ccc(Br)cc1)C1C2C=CC3(O2)C1C(=O)N(CCN1CCOCC1)C3C(=O)NC1CCCCC1 (stereo not drawn) | inactive: 16.7% |
| CCCCNC(=O)C1(C)CCN1C(=O)c1ccc(F)cc1Cl (stereo not drawn) | inactive: 1.36% |
| CCCCCc1ccc(-c2ccc(/C=C/C(N)=O)cc2)nc1 | inactive: 17.8% |
| Cc1ccc(S(=O)(=O)N2CCOCC2)cc1NC(=O)COC(=O)c1cnc(Cl)c(Cl)c1 | inactive: 6.57% |
| Cc1ccnc2nc(C(=O)OCC(=O)Nc3ccc4c(c3)OCCO4)nn12 | inactive: 7.25% |
